Measurements published in the BET-seq Pho4 binding data (Le et al. 2018).
Some of the results follow. Values were computed here from the reads of four pooled replicates and scatter widely.

molecular target: T1, Pho4 (S. cerevisiae) (UniProt P07270); experiment: relative binding free energy (BET-seq); higher = weaker binding; conditions: reference: library average
T1 sequence: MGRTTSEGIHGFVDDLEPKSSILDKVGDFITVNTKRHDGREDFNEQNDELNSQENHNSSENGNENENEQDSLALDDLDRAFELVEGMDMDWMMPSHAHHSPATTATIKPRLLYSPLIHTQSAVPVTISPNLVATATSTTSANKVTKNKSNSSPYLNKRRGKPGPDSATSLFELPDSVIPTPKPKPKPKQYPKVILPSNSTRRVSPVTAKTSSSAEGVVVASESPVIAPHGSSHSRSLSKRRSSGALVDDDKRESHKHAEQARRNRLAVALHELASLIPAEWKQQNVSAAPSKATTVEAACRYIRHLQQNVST

Sequence | relative binding free energy [kcal/mol]
GAGTTCACGTGCGGGG | 0.24
AGTGTCACGTGATGCT | 0.17
TTCTCCACGTGGGGGT | -0.02
ATTTGCACGTGGGAGA | -0.07
AAGGACACGTGGTATT | 0.08
GTCAACACGTGGTGGA | -0.04
TTGTTCACGTGGTGAG | 0.21
TTTGGCACGTGGATGT | -0.15
AACTTCACGTGGTTGT | 0.11
ACTGTCACGTGATGTG | 0.24
AGGGTCACGTGTCAAT | 0.15
GGGAGCACGTGGGTAG | -0.26
GTGAACACGTGGTGAT | -0.08
TCTTTCACGTGATTCT | 0.29
TCTTACACGTGTGATG | 0.18
GTTATCACGTGGCTAG | 0.06
TGTTACACGTGCGTAT | 0.01
TCAGTCACGTGTAGTT | 0.14
ATAGGCACGTGCAAGG | -0.08
TAGGGCACGTGGGAGA | -0.15
ATAGTCACGTGGTTGC | -0.01
TTCGTCACGTGTAATG | 0.26
GATATCACGTGAAGTT | 0.53
GCCGTCACGTGCGGGT | 0.13
AGGTTCACGTGTCGGT | 0.29

Sequence | relative binding free energy [kcal/mol]
GGCTGCACGTGGAGAT | 0.14
GTTTACACGTGGGGGA | 0.09
TGCAGCACGTGTTCGT | -0.06
TAGATCACGTGGGGGC | 0
CGGCGCACGTGTATGG | -0.15
TGCAACACGTGATGGG | 0.15
GTAATCACGTGTGCGT | 0.26
GAAAGCACGTGGGCGG | -0.13
AACGGCACGTGGGGGG | -0.25
TGGAGCACGTGTCTTG | -0.16
TAGTCCACGTGGAAGG | 0.08
TGGAGCACGTGAAGTA | 0.21
TGTGTCACGTGTGCTC | 0.11
TGCTACACGTGGGGAG | -0.14
CGGTCCACGTGGCGGG | -0.08
TTTGGCACGTGGTAGA | -0.1
ACAGTCACGTGATAGG | 0.19
GGAGTCACGTGCATGG | 0.12
ATTTTCACGTGATAGC | 0.49
GATATCACGTGTGTTA | 0.2
TGCATCACGTGGTTGG | 0.15
AGTGTCACGTGGTCCA | -0.06
CAAGTCACGTGGGGAG | -0.02
TTAAGCACGTGTAGGC | -0.11
TTATGCACGTGTGCGG | -0.09

Sequence | relative binding free energy [kcal/mol]
GTGGCCACGTGGTGGG | -0.1
TCATGCACGTGTCGTG | -0.09
GAGTGCACGTGATTAA | 0.24
CTATTCACGTGAGGTA | 0.23
TAGAACACGTGGGCGG | -0.21
TTAGTCACGTGCAGTA | 0.07
TATTGCACGTGTTCAT | -0.02
GTAGTCACGTGTCGTA | 0.27
TTGGACACGTGTTTCT | 0.11
TGAATCACGTGTGCTA | 0.28
GGTGGCACGTGAAGAG | 0.23
TCAAGCACGTGTGCTT | 0.02
TAGATCACGTGTAGGA | 0.18
AGTGCCACGTGAGATG | 0.12
GTTGTCACGTGCGATG | 0.12
TGCGTCACGTGCTGTA | 0.12
CGGGGCACGTGGTGGG | -0.17
TTTCGCACGTGTTGGG | -0.03
AGAAACACGTGTGGTT | 0.07
CGGATCACGTGAGTGC | 0.4
GTGTTCACGTGTTTGC | 0.2
TATGGCACGTGAGTCT | 0.03
GTGTGCACGTGCACGG | -0.18
GTTACCACGTGCGGGT | -0.08
ATAGTCACGTGTGAAT | 0.31

Sequence | relative binding free energy [kcal/mol]
TTGTGCACGTGTCTGA | -0.01
TTGATCACGTGTATCT | 0.09
ACGTGCACGTGAGTGG | 0.15
TGGTTCACGTGAGAGG | 0.46
ATGTGCACGTGAGCAG | 0.08
AGAATCACGTGTGGTC | 0.29
GAAGGCACGTGGGGCT | -0.16
TGGGACACGTGACTGT | -0.04
GGAGACACGTGGACGG | 0.11
TAAGGCACGTGTATAG | -0.18
ATTTTCACGTGATTGC | 0.37
TCTGTCACGTGATGAT | 0.2
AAGTTCACGTGAGCGT | 0.33
TAATGCACGTGTCGAG | 0.11
GATGGCACGTGAAAAT | 0.34
TGTGACACGTGATGTC | 0.17
ACAGGCACGTGTATGT | -0.14
GTGGACACGTGCAGTG | 0.06
ACGGTCACGTGGTAAT | 0.18
AAGGACACGTGAGCGG | 0.13
GTGTCCACGTGATTGT | 0.06
ATTGCCACGTGGTCTG | -0.2
TAGGGCACGTGTTAGC | -0.05
TGGTTCACGTGTTTCG | 0.28
GGGTGCACGTGGTAGC | -0.11

Sequence | relative binding free energy [kcal/mol]
TCAGGCACGTGGGGTT | -0.25
AGTGCCACGTGGAAAG | 0.21
TGGAACACGTGTGGGT | 0.13
GGGACCACGTGGTGCG | -0.17
GGAAACACGTGGTATG | -0.11
GCTTTCACGTGCGAGG | 0.4
TTTTCCACGTGGTAAT | 0.04
AGGTGCACGTGGATCG | -0.05
GGGGGCACGTGTGGAC | -0.14
TTTAGCACGTGAGTTT | 0.21
TGCACCACGTGTGGGG | -0.17
GAGGTCACGTGTAATA | 0.24
TGGGCCACGTGGGGTG | -0.23
TGACACACGTGATGTG | 0.12
TAAATCACGTGGGTAG | -0.03
AGGTGCACGTGGGAAA | -0.09
TGTGTCACGTGCGCTG | -0.02
AGCAGCACGTGTTGTA | 0
TTCGGCACGTGACGGG | 0.09
GAATGCACGTGTTATA | 0.04
GAGCTCACGTGTCGGT | 0.32
GGAAGCACGTGAGGAG | 0.2
GGGAACACGTGGGGGA | -0.04
GGTGCCACGTGAGATT | 0.31
TTGTTCACGTGGTGCG | 0.22

Sequence | relative binding free energy [kcal/mol]
AGTGACACGTGTCCGG | 0.01
TCAGGCACGTGCTTGG | -0.23
AGTAGCACGTGGTGAG | -0.14
TGTTACACGTGCGGTG | 0.09
TGTCTCACGTGGTTGC | 0.2
TGTAGCACGTGTGTAC | 0.04
TATTTCACGTGTGCAA | 0.28
TCTTACACGTGTTATT | -0.01
GTGTGCACGTGGTTGC | -0.04
TATGCCACGTGATGTT | -0.1
GTGGTCACGTGCGGAG | 0.1
TTGGGCACGTGAGTTG | 0.26
AGTTGCACGTGCGGTC | -0.02
GCTAGCACGTGGTGTG | -0.12
AGGTACACGTGTACTG | -0.05
ATTTTCACGTGTTCTG | 0.23
GTTCGCACGTGTTGTC | 0.1
CTGTACACGTGTTGTT | 0.1
GAGGGCACGTGGAATT | 0.12
ATTTACACGTGTGTGC | -0.03
CGTTGCACGTGGTAGA | -0.18
